Experimental data: publication doi:10.1101/2024.08.07.607021
These are yes or no findings as the source states them, for the method shown. Binding seen in cells or lysates may run through a third protein. Some entries that bind do so weakly or less than the wild type. For part of these data: Sequences can lack the tags named with a protein.

The chains behind the UniProt entries cited, without tags or fusion partners. Where a name states a change or a piece, a line headed by the entry shows the natural chain unless it says otherwise.
UniProt P51809: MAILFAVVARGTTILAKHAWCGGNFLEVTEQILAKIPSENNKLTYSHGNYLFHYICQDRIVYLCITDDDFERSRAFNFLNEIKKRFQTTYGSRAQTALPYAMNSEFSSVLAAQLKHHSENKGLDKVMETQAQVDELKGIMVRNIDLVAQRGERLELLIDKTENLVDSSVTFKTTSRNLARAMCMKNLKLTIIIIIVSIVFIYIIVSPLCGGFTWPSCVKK
UniProt Q12846: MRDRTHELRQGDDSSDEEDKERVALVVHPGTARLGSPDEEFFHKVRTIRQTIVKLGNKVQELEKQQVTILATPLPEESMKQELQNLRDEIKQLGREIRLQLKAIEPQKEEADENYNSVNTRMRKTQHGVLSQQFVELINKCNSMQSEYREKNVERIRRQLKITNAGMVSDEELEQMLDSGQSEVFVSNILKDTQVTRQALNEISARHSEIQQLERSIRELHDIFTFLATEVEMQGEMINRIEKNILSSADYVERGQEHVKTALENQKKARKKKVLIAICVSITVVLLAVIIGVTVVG
UniProt Q01628: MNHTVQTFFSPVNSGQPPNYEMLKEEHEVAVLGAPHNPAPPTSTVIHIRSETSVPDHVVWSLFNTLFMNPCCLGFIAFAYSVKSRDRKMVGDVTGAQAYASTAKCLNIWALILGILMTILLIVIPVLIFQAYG

What was measured:
VAMP8-HA (human) = target: T1, VAMP8-HA (human) (UniProt Q9BV40); assay: co-IP; HEK293T co-transfected with one FLAG-tagged CD225 protein and one HA- or Myc-tagged SNARE; lysis in 50 mM Tris-HCl pH 7.4, 1.0% TritonX-100, 150 mM NaCl, 1 mM EDTA; IP with anti-HA, anti-FLAG or anti-myc on Dynabeads, 3 hr at 4°C; immunoblot
T1 sequence: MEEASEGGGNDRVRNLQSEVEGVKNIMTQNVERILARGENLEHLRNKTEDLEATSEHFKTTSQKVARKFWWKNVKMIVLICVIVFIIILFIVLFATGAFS

VAMP7-myc (human) = VAMP7-myc (human) (UniProt P51809); assay: as above
[1] = target: T2, STX7-HA (syntaxin 7), in HEK293T (human) (UniProt O15400); assay: co-IP; HEK293T stably expressing Empty Vector, IFITM3 WT-FLAG or IFITM3 G95L-FLAG, co-transfected with STX7-HA and VAMP8-Myc or VAMP7-Myc; STX7-HA immunoprecipitated with anti-HA; immunoblot with anti-HA, anti-FLAG, anti-Myc
T2 sequence: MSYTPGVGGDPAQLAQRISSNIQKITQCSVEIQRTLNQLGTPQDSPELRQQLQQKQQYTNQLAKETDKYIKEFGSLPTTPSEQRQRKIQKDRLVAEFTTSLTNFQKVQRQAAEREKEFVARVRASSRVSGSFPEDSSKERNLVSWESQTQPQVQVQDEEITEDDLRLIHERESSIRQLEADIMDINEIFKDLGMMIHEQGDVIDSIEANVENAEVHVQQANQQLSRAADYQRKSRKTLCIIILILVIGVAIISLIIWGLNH

[2] = target: T3, STX8-HA (syntaxin 8) (human) (UniProt Q9UNK0); assay: co-IP; HEK293T co-transfected with one FLAG-tagged CD225 protein and one HA- or Myc-tagged SNARE; lysis in 50 mM Tris-HCl pH 7.4, 1.0% TritonX-100, 150 mM NaCl, 1 mM EDTA; IP with anti-HA, anti-FLAG or anti-myc on Dynabeads, 3 hr at 4°C; immunoblot
T3 sequence: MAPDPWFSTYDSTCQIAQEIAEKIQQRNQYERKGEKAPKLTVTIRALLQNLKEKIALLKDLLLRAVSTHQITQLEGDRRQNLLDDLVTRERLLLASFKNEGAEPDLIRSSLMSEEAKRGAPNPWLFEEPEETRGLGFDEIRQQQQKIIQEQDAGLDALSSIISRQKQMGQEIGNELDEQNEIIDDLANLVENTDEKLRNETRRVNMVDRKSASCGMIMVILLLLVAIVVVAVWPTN

[3] = target: T2, STX7-HA (syntaxin 7), in HEK293T (human); assay: as above
[4] = target: T4, endogenous VAMP8 (HeLa) (human (endogenous in HeLa)) (UniProt Q9BV40); assay: co-IP; HeLa (WT or IFITM3 KO); endogenous STX8, Vti1b, VAMP8 or VAMP7 immunoprecipitated with its antibody; immunoblot for endogenous IFITM3 or VAMP8
T4 sequence: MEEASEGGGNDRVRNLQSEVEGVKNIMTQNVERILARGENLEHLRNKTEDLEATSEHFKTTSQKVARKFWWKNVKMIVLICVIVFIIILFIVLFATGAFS

[5] = target: T5, endogenous Vti1b (HeLa) (human (endogenous in HeLa)) (UniProt Q9UEU0); assay: as above
T5 sequence: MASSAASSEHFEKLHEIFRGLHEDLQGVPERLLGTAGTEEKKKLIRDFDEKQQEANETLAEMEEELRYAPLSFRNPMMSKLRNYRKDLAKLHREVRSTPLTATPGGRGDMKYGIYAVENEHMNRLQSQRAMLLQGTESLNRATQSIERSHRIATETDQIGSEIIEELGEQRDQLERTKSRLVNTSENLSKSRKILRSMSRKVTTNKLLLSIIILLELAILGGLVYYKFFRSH

[6] = target: endogenous VAMP7 (HeLa) (human (endogenous in HeLa)) (UniProt P51809); assay: as above
[7] = target: T6, endogenous STX8 (HeLa) (human (endogenous in HeLa)) (UniProt Q9UNK0); assay: as above
T6 sequence: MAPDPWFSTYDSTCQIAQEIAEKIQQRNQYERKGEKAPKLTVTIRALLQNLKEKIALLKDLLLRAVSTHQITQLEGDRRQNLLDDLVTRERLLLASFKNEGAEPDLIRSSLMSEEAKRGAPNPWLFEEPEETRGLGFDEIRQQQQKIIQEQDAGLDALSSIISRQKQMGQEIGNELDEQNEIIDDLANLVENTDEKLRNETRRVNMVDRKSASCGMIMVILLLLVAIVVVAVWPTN

[8] = target: T7, STX7-HA (syntaxin 7), in HeLa (human) (UniProt O15400); assay: co-IP; HeLa (WT or IFITM3 KO) transfected with STX7-HA; STX7-HA immunoprecipitated with anti-HA; immunoblot for endogenous IFITM3, STX8, Vti1b; isotype matched antibody as control
T7 sequence: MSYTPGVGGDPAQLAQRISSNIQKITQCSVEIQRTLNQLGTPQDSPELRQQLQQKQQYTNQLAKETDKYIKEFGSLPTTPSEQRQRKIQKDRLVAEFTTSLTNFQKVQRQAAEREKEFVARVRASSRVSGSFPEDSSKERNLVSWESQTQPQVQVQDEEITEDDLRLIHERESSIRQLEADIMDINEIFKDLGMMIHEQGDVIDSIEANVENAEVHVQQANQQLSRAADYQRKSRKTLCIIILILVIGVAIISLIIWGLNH

[9] = target: T8, STX7-HA (syntaxin 7), in HEK293T (human), O15400; assay: co-IP; HEK293T stably expressing Empty Vector, IFITM3 WT-FLAG or IFITM3 G95L-FLAG, co-transfected with STX7-HA and VAMP8-Myc or VAMP7-Myc; STX7-HA immunoprecipitated with anti-HA; immunoblot with anti-HA, anti-FLAG, anti-Myc; details: remark: other sources report otherwise
T8 chain: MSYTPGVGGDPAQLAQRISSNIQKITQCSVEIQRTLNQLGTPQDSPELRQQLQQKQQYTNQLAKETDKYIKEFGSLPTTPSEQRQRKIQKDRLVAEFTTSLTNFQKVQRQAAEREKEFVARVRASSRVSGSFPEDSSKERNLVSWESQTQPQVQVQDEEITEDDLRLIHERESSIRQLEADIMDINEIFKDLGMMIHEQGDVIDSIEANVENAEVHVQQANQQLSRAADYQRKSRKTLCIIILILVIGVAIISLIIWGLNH

[10] = target: T9, endogenous STX8 (HeLa) (human (endogenous in HeLa)), Q9UNK0; assay: co-IP; HeLa (WT or IFITM3 KO); endogenous STX8, Vti1b, VAMP8 or VAMP7 immunoprecipitated with its antibody; immunoblot for endogenous IFITM3 or VAMP8; details: remark: other sources report otherwise
T9 chain: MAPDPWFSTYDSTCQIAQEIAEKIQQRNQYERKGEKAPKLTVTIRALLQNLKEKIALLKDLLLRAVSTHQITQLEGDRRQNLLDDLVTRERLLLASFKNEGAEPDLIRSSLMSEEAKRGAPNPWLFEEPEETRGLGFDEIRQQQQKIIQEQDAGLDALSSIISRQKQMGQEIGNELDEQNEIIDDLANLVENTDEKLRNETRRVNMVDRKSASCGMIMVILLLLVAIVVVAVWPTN

STX4-HA (syntaxin 4) = STX4-HA (syntaxin 4) (UniProt Q12846); assay: co-IP; HEK293T co-transfected with one FLAG-tagged CD225 protein and one HA- or Myc-tagged SNARE; lysis in 50 mM Tris-HCl pH 7.4, 1.0% TritonX-100, 150 mM NaCl, 1 mM EDTA; IP with anti-HA, anti-FLAG or anti-myc on Dynabeads, 3 hr at 4°C; immunoblot
[11] = target: IFITM3-FLAG WT (interferon-induced transmembrane protein 3) (human) (UniProt Q01628); assay: as above

How did the binding (VAMP8-HA (human)) turn out when “IFITM3-FLAG G95L (from UniProt Q01628 1-133)” was run?
The binding was “binds”.

And the binding (VAMP7-myc (human))?
Its binding is “binds”.

Which binding [1] does the source give for “IFITM3-FLAG WT (interferon-induced transmembrane protein 3) (from UniProt Q01628 1-133)” here?
The binding was “binds”.

What about the binding (VAMP8-HA (human)) of the same molecule?
Its binding is “binds”.

And the binding (VAMP7-myc (human))?
Its binding is “binds”.

And the binding [2]?
Its binding is “binds”.

What about the binding [3] of the same molecule?
Its binding is “binds”.

With “endogenous IFITM3 (HeLa) (from UniProt Q01628 1-133)” as the molecule, how does the binding [4] read?
Its binding is “binds”.

And the binding [5]?
Its binding is “binds”.

And the binding [6]?
Its binding is “binds”.

And the binding [7]?
The binding was “binds”.

And the binding [8]?
Its binding is “binds”.

B1: VAMP8-Myc, Q9BV40 1-100 (protein)
chain: MEEASEGGGNDRVRNLQSEVEGVKNIMTQNVERILARGENLEHLRNKTEDLEATSEHFKTTSQKVARKFWWKNVKMIVLICVIVFIIILFIVLFATGAFS
With B1 as the molecule, how does the binding [9] read?
Its binding is “binds”.

B2: endogenous STX8 (HeLa) (protein, UniProt Q9UNK0 1-236)
chain: MAPDPWFSTYDSTCQIAQEIAEKIQQRNQYERKGEKAPKLTVTIRALLQNLKEKIALLKDLLLRAVSTHQITQLEGDRRQNLLDDLVTRERLLLASFKNEGAEPDLIRSSLMSEEAKRGAPNPWLFEEPEETRGLGFDEIRQQQQKIIQEQDAGLDALSSIISRQKQMGQEIGNELDEQNEIIDDLANLVENTDEKLRNETRRVNMVDRKSASCGMIMVILLLLVAIVVVAVWPTN
Which binding [8] does the source give for B2 here?
Its binding is “binds”.

B3: endogenous VAMP8 (HeLa), Q9BV40 1-100 (protein)
chain: MEEASEGGGNDRVRNLQSEVEGVKNIMTQNVERILARGENLEHLRNKTEDLEATSEHFKTTSQKVARKFWWKNVKMIVLICVIVFIIILFIVLFATGAFS
Which binding [10] does the source give for B3 here?
Its binding is “binds”.

B4: TUSC5-FLAG WT (trafficking regulator of GLUT4) (protein, UniProt Q8IXB3 1-177)
chain: MAHPVQSEFPSAQEPGSAAFLDLPEMEILLTKAENKDDKTLNLSKTLSGPLDLEQNSQGLPFKAISEGHLEAPLPRSPSRASSRRASSIATTSYAQDQEAPRDYLILAVVACFCPVWPLNLIPLIISIMSRSSMQQGNVDGARRLGRLARLLSITLIIMGIVIIMVAVTVNFTVQKK
For B4, which binding (STX4-HA (syntaxin 4)) is on record?
Its binding is “binds”.

B5: STX7-HA (syntaxin 7), in HEK293T (protein, UniProt O15400 1-261)
chain: MSYTPGVGGDPAQLAQRISSNIQKITQCSVEIQRTLNQLGTPQDSPELRQQLQQKQQYTNQLAKETDKYIKEFGSLPTTPSEQRQRKIQKDRLVAEFTTSLTNFQKVQRQAAEREKEFVARVRASSRVSGSFPEDSSKERNLVSWESQTQPQVQVQDEEITEDDLRLIHERESSIRQLEADIMDINEIFKDLGMMIHEQGDVIDSIEANVENAEVHVQQANQQLSRAADYQRKSRKTLCIIILILVIGVAIISLIIWGLNH
How did the binding [11] turn out when B5 was run?
Its binding is “binds”.

B6: TUSC5-FLAG G141W (protein, UniProt Q8IXB3 1-177)
chain: MAHPVQSEFPSAQEPGSAAFLDLPEMEILLTKAENKDDKTLNLSKTLSGPLDLEQNSQGLPFKAISEGHLEAPLPRSPSRASSRRASSIATTSYAQDQEAPRDYLILAVVACFCPVWPLNLIPLIISIMSRSSMQQGNVDWARRLGRLARLLSITLIIMGIVIIMVAVTVNFTVQKK
With B6 as the molecule, how does the binding (STX4-HA (syntaxin 4)) read?
The binding was “no binding”.
